Experimental data reported in patent publication US7816326B2, “Sulfur compounds as inhibitors of hepatitis C virus NS3 serine protease” (Schering Corporation, priority 2004, dated 2010).
Like-named read-outs stand apart in the source and are kept apart here.

Molecular target: Recombinant heterodimeric HCV NS3/NS4A protease (strain 1a) (Hepatitis C virus genotype 1a, UniProt P27958)
Experiment: Spectrophotometric assay for HCV protease inhibitory activity
Format: biochemical
[1] = HCV serine protease inhibitory activity ranges, read-out: Ki* Range
[2] = HCV NS3/NS4A protease, chromogenic ester substrate, 30° C., pH 6.5, read-out: Ki*

Row | Structure (SMILES) | Ki [1] [nM] | Ki [2] [nM]
1 | CN(C(C)(C)C)S(=O)(=O)CC1(NC(=O)N[C@H](C(=O)N2C[C@H]3[C@@H]([C@H]2C(=O)N[C@@H](CCC2CC2)C(=O)C(=O)NC2CC2)C3(C)C)C2(C)CCCCC2)CCCCC1 [compound 1277] | < 75 | –
2 | CCCC[C@H](NC(=O)[C@@H]1[C@@H]2[C@H](CN1C(=O)[C@@H](NC(=O)NC1([C@@H](C)S(=O)(=O)N(C)C)CCCCC1)C1(C)CCCCC1)C2(C)C)C(=O)C(=O)NC1CC1 [compound 1407] | < 75 | –
3 | CCC[C@H](NC(=O)[C@@H]1[C@@H]2[C@H](CN1C(=O)[C@@H](NC(=O)NC1(CS(=O)(=O)N(C)[C@@H](C)C3CC3)CCCCC1)C(C)(C)C)C2(C)C)C(=O)C(=O)NC1CC1 [compound 1288] | < 75 | –
4 | CCCC[C@H](NC(=O)[C@@H]1[C@@H]2[C@H](CN1C(=O)[C@@H](NC(=O)NC1(CS(=O)(=O)N(C)C3CC3)CCCCC1)C(C)(C)C)C2(C)C)C(=O)C(=O)NC1CC1 [compound 1261, 3-[2-(3-{1-[(Cyclopropyl-methyl-sulfamoyl)-methyl]-cyclohexyl}-ureido)-3,3-dimethyl-butyryl]-6,6-dimethyl-3-aza-bicyclo[3.1.0]hexane-2-carboxylic acid (1-cyclopropylaminooxalyl-pentyl)-amide] | < 75 | 11
5 | CCCC[C@H](NC(=O)[C@@H]1[C@@H]2[C@H](CN1C(=O)[C@@H](NC(=O)NC1(CS(=O)(=O)N3CCOCC3)CCCCC1)C1(C)CCCCC1)C2(C)C)C(=O)C(=O)NC1CC1 [compound 1370] | < 75 | –
6 | CCCC[C@H](NC(=O)[C@@H]1[C@@H]2[C@H](CN1C(=O)[C@@H](NC(=O)NC1(CS(=O)(=O)N3CCOCC3)CCCCC1)C(C)(C)C)C2(C)C)C(=O)C(=O)NC1CC1 [compound 1382] | < 75 | –
7 | CCC[C@H](NC(=O)[C@@H]1[C@@H]2[C@H](CN1C(=O)[C@@H](NC(=O)NC1(CS(=O)(=O)N(C)[C@H](C)C3CC3)CCCCC1)C(C)(C)C)C2(C)C)C(=O)C(=O)NC1CC1 [compound 1296] | < 75 | –
8 | C=CCNC(=O)C(=O)C(CC1CC1)NC(=O)[C@@H]1[C@@H]2[C@H](CN1C(=O)[C@@H](NC(=O)N[C@H]([C@H]1CCN(C)S1(=O)=O)C(C)(C)C)C1(C)CCCCC1)C2(C)C (some centres unmarked) [compound 1223] | > 250 | –
9 | CCC[C@H](NC(=O)[C@@H]1[C@@H]2[C@H](CN1C(=O)[C@@H](NC(=O)NC1(CS(=O)(=O)N(C(C)C)C(C)C)CCCCC1)C1(C)CCCCC1)C2(C)C)C(=O)C(=O)NC1CC1 [compound 1355] | < 75 | –
10 | CCCC[C@H](NC(=O)[C@@H]1[C@@H]2[C@H](CN1C(=O)[C@@H](NC(=O)NC1(CS(=O)(=O)N(CC)CC)CCCCC1)C1(C)CCCCC1)C2(C)C)C(=O)C(=O)NC1CC1 [compound 1264] | < 75 | –
11 | CCCC[C@H](NC(=O)[C@@H]1[C@@H]2[C@H](CN1C(=O)[C@@H](NC(=O)NC1(CS(=O)(=O)N3CC(F)(F)C3)CCCCC1)C(C)(C)C)C2(C)C)C(=O)C(=O)NC1CC1 [compound 1406] | < 75 | –
12 | CN(C)S(=O)(=O)CC1(NC(=O)N[C@H](C(=O)N2C[C@H]3[C@@H]([C@H]2C(=O)N[C@@H](CC2CC2)C(=O)C(=O)NC2CC2)C3(C)C)C(C)(C)C)CCCCC1 [compound 1251] | < 75 | –
13 | CN(C(C)(C)C)S(=O)(=O)CC1(NC(=O)N[C@H](C(=O)N2C[C@H]3[C@@H]([C@H]2C(=O)N[C@@H](CC2CC2)C(=O)C(=O)NC2CC2)C3(C)C)C2(C)CCCCC2)CCCCC1 [compound 1279] | < 75 | –
14 | C[C@@H](C1(NC(=O)N[C@H](C(=O)N2C[C@H]3[C@@H]([C@H]2C(=O)N[C@@H](CC2CC2)C(=O)C(=O)NC2CC2)C3(C)C)C(C)(C)C)CCCCC1)S(=O)(=O)N(C)C [compound 1404] | < 75 | –
15 | CCCC[C@H](NC(=O)[C@@H]1[C@@H]2[C@H](CN1C(=O)[C@@H](NC(=O)NC1(CS(=O)(=O)NC)CCCCC1)C(C)(C)C)C2(C)C)C(=O)C(=O)NC1CC1 [compound 1245] | < 75 | –
16 | CCC[C@H](NC(=O)[C@@H]1[C@@H]2[C@H](CN1C(=O)[C@@H](NC(=O)NC1(CS(=O)(=O)N(C)C(C)C)CCCCC1)C(C)(C)C)C2(C)C)C(=O)C(=O)NC1CC1 [compound 1250] | < 75 | –
17 | CCC[C@H](NC(=O)[C@@H]1[C@@H]2[C@H](CN1C(=O)[C@@H](NC(=O)NC1(CS(=O)(=O)N(C)C)CCCCC1)C1CCCCC1)C2(C)C)C(=O)C(=O)NC1CC1 [compound 1243] | < 75 | –
18 | CC(C)N(C(C)C)S(=O)(=O)CC1(NC(=O)N[C@H](C(=O)N2C[C@H]3[C@@H]([C@H]2C(=O)N[C@@H](CC2CC2)C(=O)C(=O)NC2CC2)C3(C)C)C(C)(C)C)CCCCC1 [compound 1346] | < 75 | –

Row | Structure (SMILES) | Ki [1] [nM] | Ki [2] [nM]
19 | CC(C)N(C(C)C)S(=O)(=O)CC1(NC(=O)N[C@H](C(=O)N2C[C@H]3[C@@H]([C@H]2C(=O)N[C@@H](CC2CC2)C(=O)C(=O)NC2CC2)C3(C)C)C2(C)CCCCC2)CCCCC1 [compound 1356] | < 75 | –
20 | C#CCC[C@H](NC(=O)[C@@H]1[C@@H]2[C@H](CN1C(=O)[C@@H](NC(=O)NC1(CS(=O)(=O)N(C)C3CC3)CCCCC1)C(C)(C)C)C2(C)C)C(=O)C(=O)NC1CC1 [compound 1379] | < 75 | –
21 | C[C@@H](C1(NC(=O)N[C@H](C(=O)N2C[C@H]3[C@@H]([C@H]2C(=O)N[C@@H](CCC2CC2)C(=O)C(=O)NC2CC2)C3(C)C)C(C)(C)C)CCCCC1)S(=O)(=O)N(C)C [compound 1402] | < 75 | –
22 | CN(C1CCC1)S(=O)(=O)CC1(NC(=O)N[C@H](C(=O)N2C[C@H]3[C@@H]([C@H]2C(=O)N[C@@H](CCC2CC2)C(=O)C(=O)NC2CC2)C3(C)C)C2(C)CCCCC2)CCCCC1 [compound 1391] | < 75 | –
23 | CCC[C@H](NC(=O)[C@@H]1[C@@H]2[C@H](CN1C(=O)[C@@H](NC(=O)NC1([C@@H](C)S(=O)(=O)N(C)C)CCCCC1)C(C)(C)C)C2(C)C)C(=O)C(=O)NC1CC1 [compound 1399] | < 75 | –
24 | C[C@H](C1CC1)N(C)S(=O)(=O)CC1(NC(=O)N[C@H](C(=O)N2C[C@H]3[C@@H]([C@H]2C(=O)N[C@@H](CC2CC2)C(=O)C(=O)NC2CC2)C3(C)C)C(C)(C)C)CCCCC1 [compound 1297] | < 75 | –
25 | CCCC[C@H](NC(=O)[C@@H]1[C@@H]2[C@H](CN1C(=O)[C@@H](NC(=O)NC1(CS(=O)(=O)N(C(C)C)C(C)C)CCCCC1)C1(C)CCCCC1)C2(C)C)C(=O)C(=O)NC1CC1 [compound 1353] | < 75 | –
26 | CCC[C@H](NC(=O)[C@@H]1[C@@H]2[C@H](CN1C(=O)[C@@H](NC(=O)NC1(CS(=O)(=O)N(CC)C(C)C)CCCCC1)C1(C)CCCCC1)C2(C)C)C(=O)C(=O)NC1CC1 [compound 1305] | < 75 | –
27 | CCN(C(C)(C)C)S(=O)(=O)CC1(NC(=O)N[C@H](C(=O)N2C[C@H]3[C@@H]([C@H]2C(=O)N[C@@H](CCC2CC2)C(=O)C(=O)NC2CC2)C3(C)C)C2(C)CCCCC2)CCCCC1 [compound 1324] | < 75 | –
28 | CCC[C@H](NC(=O)[C@@H]1[C@@H]2[C@H](CN1C(=O)[C@@H](NC(=O)NC1(CS(=O)(=O)N(C)C3CCC3)CCCCC1)C1(C)CCCCC1)C2(C)C)C(=O)C(=O)NC1CC1 [compound 1388] | < 75 | –
29 | CC(C)N(C)S(=O)(=O)CC1(NC(=O)N[C@H](C(=O)N2C[C@H]3[C@@H]([C@H]2C(=O)N[C@@H](CCC2CC2)C(=O)C(=O)NC2CC2)C3(C)C)C2(C)CCCCC2)CCCCC1 [compound 1254] | < 75 | –
30 | C[C@@H](C1(NC(=O)N[C@H](C(=O)N2C[C@H]3[C@@H]([C@H]2C(=O)N[C@@H](CCC2CC2)C(=O)C(=O)NC2CC2)C3(C)C)C(C)(C)C)CCCCC1)S(=O)(=O)N(C)C1CC1 [compound 1420] | < 75 | –
31 | CCC[C@H](NC(=O)[C@@H]1[C@@H]2[C@H](CN1C(=O)[C@@H](NC(=O)NC1(CS(=O)(=O)N(CC)C(C)(C)C)CCCCC1)C1(C)CCCCC1)C2(C)C)C(=O)C(=O)NC1CC1 [compound 1325] | < 75 | –
32 | CCN(C1CC1)S(=O)(=O)CC1(NC(=O)N[C@H](C(=O)N2C[C@H]3[C@@H]([C@H]2C(=O)N[C@@H](CC2CC2)C(=O)C(=O)NC2CC2)C3(C)C)C2(C)CCCCC2)CCCCC1 [compound 1374] | < 75 | –
33 | CN(c1ccccn1)S(=O)(=O)CC1(NC(=O)N[C@H](C(=O)N2C[C@H]3[C@@H]([C@H]2C(=O)N[C@H](CC2CC2)C(=O)C(=O)NC2CC2)C3(C)C)C(C)(C)C)CCCCC1 [compound 1396] | < 75 | –
34 | CCN(CC)S(=O)(=O)CC1(NC(=O)N[C@H](C(=O)N2C[C@H]3[C@@H]([C@H]2C(=O)N[C@@H](CCC2CC2)C(=O)C(=O)NC2CC2)C3(C)C)C2(C)CCCCC2)CCCCC1 [compound 1265] | < 75 | –
35 | CON(C)S(=O)(=O)CC1(NC(=O)N[C@H](C(=O)N2C[C@H]3[C@@H]([C@H]2C(=O)N[C@@H](CCC2CC2)C(=O)C(=O)NC2CC2)C3(C)C)C(C)(C)C)CCCCC1 [compound 1222] | < 75 | –
36 | CCCC[C@H](NC(=O)[C@@H]1[C@@H]2[C@H](CN1C(=O)[C@@H](NC(=O)NC1(CS(=O)(=O)N(C)C)CCCCC1)C(C)(C)C)C2(C)C)C(=O)C(=O)NC1CC1 [compound 1200, 3-{2-[3-(1-Dimethylsulfamoylmethyl-cyclohexyl)-ureido]-3,3-dimethyl-butyryl}-6,6-dimethyl-3-aza-bicyclo[3.1.0]hexane-2-carboxylic acid(1-cyclopropylaminooxalyl-pentyl)-amide] | < 75 | 12
